According to the supplement of paper PMC9513381:
Recombinant human monoclonal antibodies (heavy:light variable regions). ELISA EC50 on the named antigen, from 10 µg/ml down; IC50 / IC90 against spike pseudovirus on 293T-ACE2 cells, 48 h; lower = stronger. Calls: IC50 above 1,000 ng/ml = non-neutralizing; EC50 above 1,000 ng/ml = non-binder. The source prints 1000 for neutralization that was not reached; it is given as >1000 ng/ml. Only binders of the Wuhan-Hu-1 domain have neutralization values.

B1: B1041 (protein)
chain 1: QVQLVQSGAEVKKPGSSVKVSCKASGGTFSSYTVTWVRQAPGQGLEWMGGIIAALGAANYAQKFQGRVTFTADDSRSTVYMELSSLTYEDTAVYYCATSRGYSGYGANNWFDPWGQGSLVTVSS
chain 2: QSVLTQPPSVSGAPGQRVTISCTGSNSNIGAGYDVHWYQQLPGTAPRLLIHVNSNRPSGVPERFSGFKSGTSASLAITGLQAEDEAIYYCQSYDSSLTGSLFGGGTKLTVL
B2: B1040 (protein)
chain 1: EVQLVESGGGLVQPGRSLRLSCAASGFTFDDYAMHWVRQAPGKGLEWVSGISWNSGTIGYADSVKGRFIISRDNAKNSLYLQMYSLRAEDTALYYCAKDVYMGKINLYGHEDYGMDVWGQGTTVTVS
chain 2: QSVLTQPPSVSGAPGQRVTISCTGSSSNVGASYDVHWYQQLPGTAPKLLIYGKDNRPSGVPDRFSGSKSGTSASLAITGLQAEDEADYYCQSFDSSLSGVLFGGGTKLTVL
B3: B2098 (protein)
chain 1: EVQLLESGGALVQPGGSLRLSCAASGFTFSTYAMSWVRQAPGKGLEWVSGLTSSGGRPYYADSVKGRFTVSRDISKNTLYLQMNSLRVEDTAVYYCAKDRGSYSGYDFLSDSWGQGTLVTVSS
chain 2: DIVMTQSPDSLAVSLGERATINCKSSQSVLYTSNNKNYLAWFQQKPGQPPKLLIYWASTRESGVPDRFSGSGSGTDFTLTISSLQAEDVAAYYCQQYYNTPITFGQGTRLEIK
B4: B1027 (protein)
chain 1: EVQLVESGGGLVQPGGSLRLSCVGSGFSFSRYWLHWVRQAPGKGLVWVSRIDSDGSSPVYADFVKGRFTMSRDNAKNTLYLQMNSLRAEDTAVYYCARASPGFGGLPFDYWGQGALVTVA
chain 2: SYELTQPPSVSVAPGMTARISCGVNNIGSESVHWYQQRPGQAPVLVLYYGSDRPSGIPERFSGSNSGNTATLTISRVEAGDEADYYCQLWDSSSSSDLWVFGGGTKLTVL
B5: B1038 (protein)
chain 1: QVQLVQSGAEVKKPGASVKVSCKASGYTFTNYYMHWVRQAPGQGLEWLGMIKASGGTTHYAEKFQGRVTMTRDTSTNTVYVELSSLRSEDTAVYYCARDRLMGYYELWTAYGGMDVWGQGTTVTVSS
chain 2: SYVLTQPPSVSVAPGKTASVTCGGNDIGIKTVRWYQQKPGQAPVLVIYSDSDRPSGIPERFSGSNSGNTASLTINRVEAGDEADYYCQVWDSSSAWVFGGGTKLTV
B6: B1035 (protein)
chain 1: QVQLVESGGGLVKPGGSLRLSCAASGFIFSNYYISWIRQSPGKGLEWLSYISGSGSTIYYADSVKGRFTISRDNAKNSLYLEMNSLRPEDTAVYYCARDGSLTGYIDYWGQGTLVTVSS
chain 2: SYELTQPPSVSVAPGQTARITCGGDDIGSKGVHWYQQKPGQAPVLVVYDDSDRPSGIPERFSGSNSGNTATLTISRVEVGDEADYYCQVWDSHANPHWVFGGGTKVTVL
B7: B1026 (protein)
chain 1: QMQLVQSGPEIKKPGTSVKVSCKASGFTFSNSAVQWVRQARGQRLEWIGWIVVGSGDPNYAQKFQERVTLTRDMSTSTAYMELSSLRSEDTAVYYCATNHCSRTICSDGFDIWGQGTVVTVSS
chain 2: EIVLTQSPVSLSLSPGERATLSCRASQTVRSSYFVWYQQKLGQAPRLLIYSASSRAAGIPDRFSGSGSGTDFTLTISRLEPEDFAVYYCQQYGSSPWTFGQGTKVEIK
B8: B1030 (protein)
chain 1: QVQLVQSGAEVKKPGASVRVSCKASGYTFTSYYMHWVRQAPGQGLEWMGIINPSDGGASYAQKFQGRVTMTSDTSTSTVYMELSSLRSEDTAVYYCARALRHHSSGWYSALDFQHWGQGTLVTVSS
chain 2: not shown
B9: B1039 (protein)
chain 1: QVQLVESGGGVVQPGRSLRLSCTVSGFTFRHYGMHWVRQAPGKGLEWVAVILYDGSDKQYADSVKGRFTIARDNSKNTLYLQMNSLRAEDTAVYYCVKRRGSYCGGDCYSGEFDYWGQGTLVTVSS
chain 2: DIQMTQSPSSLSASVGDRVTITCQASQDISTYLNWFQQKPGKAPNLLISDASNLETGVPSRFSGSGSGTDFTFTISSLQPEDVATYYCQQYHNLPTFAGGTKVELK
B10: B1025 (protein)
chain 1: QVQLQESGPGLMKPSETLSLTCTVSGGSVRSGNFHWNWIRQSPGKGLEWIGHMHYTGSPSYNPSLKSRVTILLDTSKNQFSLRLSSVTAADTAVYFCARDTRYYDRSGYVRSDGMDVWGQGTTVTVSS
chain 2: DIQMTQSPSTLSASVGDRVSMTCRASQTIGSWLAWYQQKPGNAPKLLIYEASSLQSGVPSRFSGSGSGTEFTLTISSLQPDDFASYYCQQYNSYPVTFGQGTKLEIK
B11: B1033 (protein)
chain 1: EVQLVESGGGLVQPGRSLRLSCAASGFTFDDYALHWVRQAPGKGLEWVSGSSWNSATIGYADSVKGRFIISRDNAKNSLYLHMSSLRVEDTALYYCAKDSSGGDWPLCFDYWGQGILVTVSS
chain 2: EIVMTQSPATLSVSPGERATLSCRASQSVSSNLAWYQQKPGQAPRLLIYGASTRATGIPARFSGSGSGAEFTLTISSLQSEDFAVYYCQQYNNWRYTFGQGTKLEIK
B12: B1028 (protein)
chain 1: EVQLVESGGGLLQPGRSLTLSCAASGFTFDDYAMHWVRQAPGKGLEWVSGISWSGGVIDYADSVRGRFTISRDNAKESLYLHMRSLRPEDTALYYCARGSRSGSFSLRDHDYGMDVWGRGTTVTVSS
chain 2: DIVMTQSPLSLPVTPGGPASISCRSSQSLLHSNGYNYLDWYLQKPGQSPQLLISLGSNRASGVPDRFSGSGSGTDFTLKISRVEAEDVEVYYCMQGLQPPPTFGQGTKLEIK
B13: B1034 (protein)
chain 1: QVQLVQSGSEVKKPGASVKVSCKASGNTFITYYTHWVRQAPGQGLEWMGVIKPSDGYTNYAQKFQGRVTMTRDTSASTVYMELSSLTSDDTAVYYCARDSSIAARVVDWGQGTLVTVSS
chain 2: DIQMTQSPSSLSASVGDRVTITCQASQDIYNYLNWYQQKPGKAPKLLIFDAINLETGVPSRFSGSGSGTDFTLTISSLQPEDIATYYCQQHDNLPYSFGQGTKLEIK
B14: B1032 (protein)
chain 1: EVQLVESGGGLVQPGRSLRLSCEASGFTFEDFAMHWVRQAPGKGLEWVSGVSWNSGTIGYGDSVKGRFIIIRDNAKNSVYLQMNSLRPEDTAFYYCVKDMATYYKDISGTYGMDVWGQGTTVTVSS
chain 2: SYELTQTPSVSVAPGQTARITCVGNNIGSESVHWYQQKSGRAPVLVVYDDSDRPSGIPERFSGSTSGTTATLIINRVEAGDEAGYYCQVWDASSDHVVFGGGTKLTVL

What follows are binders tested against SARS-CoV-2 Wuhan-Hu-1 spike pseudovirus (assay: pseudovirus neutralization IC50; higher = weaker neutralization).
Procedure: (§1)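 Single-round luciferase reporter pseudovirus mixed with antibody dilutions and put on 293T-ACE2 cells for 48 h; signal relative to no-antibody wells, four-parameter fit.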
In the case of B1, the “pseudovirus neutralization IC50” value is reported as 0.0852 µg/mL.
With B2 the “pseudovirus neutralization IC50” value was 0.00487 µg/mL.
In the case of B3, the “pseudovirus neutralization IC50” value is reported as 0.00316 µg/mL.
For B4, the “pseudovirus neutralization IC50” value was 0.173 µg/mL.
With B5 the “pseudovirus neutralization IC50” value was 0.68 µg/mL.
B6 was tested, and the “pseudovirus neutralization IC50” value was over 1 µg/mL.
B7 was tested, and the “pseudovirus neutralization IC50” value was 0.00257 µg/mL.
In the case of B8, the “pseudovirus neutralization IC50” value is reported as 0.00118 µg/mL.
In the case of B9, the “pseudovirus neutralization IC50” value is reported as over 1 µg/mL.
In the case of B10, the “pseudovirus neutralization IC50” value is reported as 0.0197 µg/mL.
B11 was tested, and the “pseudovirus neutralization IC50” value was 0.00932 µg/mL.
With B12 the “pseudovirus neutralization IC50” value was 0.00887 µg/mL.
B13 was tested, and the “pseudovirus neutralization IC50” value was 0.00435 µg/mL.
B14 was tested, and the “pseudovirus neutralization IC50” value was 0.0145 µg/mL.

The binders below were run against SARS-CoV-2 Wuhan-Hu-1 spike pseudovirus (assay: pseudovirus neutralization IC90; higher = weaker neutralization).
Procedure: as §1
For B1, the “pseudovirus neutralization IC90” value was over 1 µg/mL.
In the case of B2, the “pseudovirus neutralization IC90” value is reported as 0.796 µg/mL.
In the case of B3, the “pseudovirus neutralization IC90” value is reported as 0.0265 µg/mL.
In the case of B4, the “pseudovirus neutralization IC90” value is reported as over 1 µg/mL.
In the case of B5, the “pseudovirus neutralization IC90” value is reported as over 1 µg/mL.
B6 was tested, and the “pseudovirus neutralization IC90” value was over 1 µg/mL.
For B7, the “pseudovirus neutralization IC90” value was 0.0165 µg/mL.
With B8 the “pseudovirus neutralization IC90” value was 0.0136 µg/mL.
With B9 the “pseudovirus neutralization IC90” value was over 1 µg/mL.
In the case of B10, the “pseudovirus neutralization IC90” value is reported as 0.115 µg/mL.
For B11, the “pseudovirus neutralization IC90” value was 0.616 µg/mL.
With B12 the “pseudovirus neutralization IC90” value was 0.109 µg/mL.
With B13 the “pseudovirus neutralization IC90” value was 0.0422 µg/mL.
With B14 the “pseudovirus neutralization IC90” value was 0.138 µg/mL.

What follows are binders tested against SARS-CoV-2 Delta (B.1.617.2) spike RBD (assay: ELISA binding EC50; higher = weaker binding; ELISA of recombinant human antibody on coated antigen, from 10 µg/ml in fourfold dilutions; four-parameter fit.).
For B1, the “ELISA binding EC50” value was 0.0158 µg/mL.
B2 was tested, and the “ELISA binding EC50” value was 0.0763 µg/mL.
In the case of B3, the “ELISA binding EC50” value is reported as 0.00896 µg/mL.
For B4, the “ELISA binding EC50” value was 0.00888 µg/mL.
B5 was tested, and the “ELISA binding EC50” value was 0.0214 µg/mL.
With B6 the “ELISA binding EC50” value was 0.00796 µg/mL.
In the case of B7, the “ELISA binding EC50” value is reported as 0.274 µg/mL.
B8 was tested, and the “ELISA binding EC50” value was 0.0585 µg/mL.
For B9, the “ELISA binding EC50” value was 0.00551 µg/mL.
B10 was tested, and the “ELISA binding EC50” value was 0.0107 µg/mL.
B11 was tested, and the “ELISA binding EC50” value was 0.317 µg/mL.
B12 was tested, and the “ELISA binding EC50” value was over 1 µg/mL.
With B13 the “ELISA binding EC50” value was 0.304 µg/mL.
B14 was tested, and the “ELISA binding EC50” value was 0.011 µg/mL.

The binders below were run against SARS-CoV-2 Omicron BA.1 spike protein in the same assay as above.
For B1, the “ELISA binding EC50” value was 0.0034 µg/mL.
With B2 the “ELISA binding EC50” value was 0.00973 µg/mL.
With B3 the “ELISA binding EC50” value was 0.0559 µg/mL.
B4 was tested, and the “ELISA binding EC50” value was 0.0169 µg/mL.
For B5, the “ELISA binding EC50” value was 0.0152 µg/mL.
With B6 the “ELISA binding EC50” value was 0.0107 µg/mL.
In the case of B7, the “ELISA binding EC50” value is reported as 0.0216 µg/mL.
With B8 the “ELISA binding EC50” value was 0.0152 µg/mL.
For B9, the “ELISA binding EC50” value was 0.00211 µg/mL.
With B10 the “ELISA binding EC50” value was 0.00791 µg/mL.
With B11 the “ELISA binding EC50” value was 0.0124 µg/mL.
B12 was tested, and the “ELISA binding EC50” value was 0.00956 µg/mL.
B13 was tested, and the “ELISA binding EC50” value was 0.00281 µg/mL.
For B14, the “ELISA binding EC50” value was 0.00583 µg/mL.

Each binder was assayed against SARS-CoV-2 Wuhan-Hu-1 spike receptor-binding domain in the same assay as above.
B1 was tested, and the “ELISA binding EC50” value was 0.00344 µg/mL.
B2 was tested, and the “ELISA binding EC50” value was 0.00208 µg/mL.
In the case of B3, the “ELISA binding EC50” value is reported as 0.00527 µg/mL.
In the case of B4, the “ELISA binding EC50” value is reported as 0.00557 µg/mL.
With B5 the “ELISA binding EC50” value was 0.00219 µg/mL.
For B6, the “ELISA binding EC50” value was 0.00455 µg/mL.
For B7, the “ELISA binding EC50” value was 0.00265 µg/mL.
B8 was tested, and the “ELISA binding EC50” value was 0.00241 µg/mL.
In the case of B9, the “ELISA binding EC50” value is reported as 0.00324 µg/mL.
For B10, the “ELISA binding EC50” value was 0.00386 µg/mL.
In the case of B11, the “ELISA binding EC50” value is reported as 0.00297 µg/mL.
In the case of B12, the “ELISA binding EC50” value is reported as 0.00287 µg/mL.
B13 was tested, and the “ELISA binding EC50” value was 0.00405 µg/mL.
B14 was tested, and the “ELISA binding EC50” value was 0.00269 µg/mL.
